Experimental data from paper PMC5540273 (PLoS ONE, 2017).
For some of these results: What follows is the remainder of the data, with few or none of the strong results. This is a selection; strong and weak results do not stand in their true shares.

Columns and labels:
Details in all cases: concentration: 1 μM,replicates: in singlicate; n = 1
PAK7 = test system: PAK7
PCTK1 = test system: T1, PCTK1
T1 construct: gene CDK16

PCTK2 = test system: T2, PCTK2
T2 construct: gene CDK17

PCTK3 = test system: T3, PCTK3
T3 construct: gene CDK18

PDGFRA = test system: PDGFRA
PDGFRB = test system: PDGFRB
PDPK1 = test system: PDPK1
PFTAIRE2 = test system: PFTAIRE2
PFTK1 = test system: T4, PFTK1
T4 construct: gene CDK14

PHKG1 = test system: PHKG1
PHKG2 = test system: PHKG2
PIK3C2B = test system: PIK3C2B
PIK3C2G = test system: PIK3C2G
PIK3CA = test system: PIK3CA
PIK3CB = test system: PIK3CB
PIK3CD = test system: PIK3CD
PIK3CG = test system: PIK3CG
PIK4CB = test system: T5, PIK4CB
T5 construct: gene PI4KB

PIKFYVE = test system: PIKFYVE
PIM1 = test system: PIM1
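Also: KINOMEscan kinase panel screen.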

Structure (SMILES) | %Inh (PAK7) [%] | %Inh (PCTK1) [%] | %Inh (PCTK2) [%] | %Inh (PCTK3) [%] | %Inh (PDGFRA) [%] | %Inh (PDGFRB) [%] | %Inh (PDPK1) [%] | %Inh (PFTAIRE2) [%] | %Inh (PFTK1) [%] | %Inh (PHKG1) [%] | %Inh (PHKG2) [%] | %Inh (PIK3C2B) [%] | %Inh (PIK3C2G) [%] | %Inh (PIK3CA) [%] | %Inh (PIK3CB) [%] | %Inh (PIK3CD) [%] | %Inh (PIK3CG) [%] | %Inh (PIK4CB) [%] | %Inh (PIKFYVE) [%] | %Inh (PIM1) [%]
O=C1NC(=O)C(c2ccccc2Cl)=C1Nc1cccc(C(=O)O)c1 [SB-390526] | 0 | 0 | 12 | 8 | 13 | 6 | 0 | 17 | 11 | 0 | 10 | 0 | 3 | 0 | 2 | 42 | 3 | 0 | 29 | 1
O=C1NC(=O)C(c2ccc(Cl)cc2)=C1Nc1ccccc1 [SB-317661] | 0 | 2 | 0 | 0 | 0 | 0 | 0 | 2 | 15 | 2 | 0 | 7 | 0 | 14 | 0 | 0 | 0 | 0 | 7 | 5
COc1cccc(C2=C(Nc3ccc(SC)cc3)C(=O)NC2=O)c1 [SB-331032] | 12 | 17 | 0 | 0 | 28 | 0 | 0 | 0 | 4 | 7 | 26 | 0 | 0 | 9 | 8 | 0 | 0 | 0 | 1 | 12
O=C1NC(=O)C(c2ccc(Cl)cc2)=C1Nc1ccc(O)c(Cl)c1 [SB-405367] | 0 | 0 | 89 | 0 | 0 | 0 | 26 | 0 | 0 | 7 | 0 | 5 | 6 | 0 | 0 | 0 | 35 | 17 | 3 | 0
Cc1ccc(C)c(Oc2nccc(-c3c(-c4ccc(F)cc4)ncn3C3CCNCC3)n2)c1.O=C(O)C(F)(F)F.O=C(O)C(F)(F)F.O=C(O)C(F)(F)F [SB-284852] | 0 | 0 | 3 | 0 | 0 | 0 | 4 | 7 | 0 | 0 | 0 | 0 | 0 | 0 | 0 | 0 | 0 | 0 | 2 | 0
O=C1NC(=O)C(c2ccccc2)=C1Nc1cc(Cl)c(O)c(Cl)c1 [SB-390530] | 0 | 0 | 0 | 16 | 21 | 3 | 0 | 0 | 10 | 0 | 4 | 0 | 8 | 0 | 45 | 0 | 17 | 32 | 7 | 0
O=C(O)c1ccc(-c2nc(-c3ccc(F)cc3)c(-c3ccncc3)[nH]2)cc1 [SB-202620] | 15 | 0 | 0 | 0 | 0 | 23 | 0 | 0 | 0 | 13 | 0 | 0 | 0 | 18 | 4 | 0 | 0 | 0 | 18 | 0
O=C1NC(=O)c2c1c(-c1ccccc1)cc1[nH]c3ccc(O)cc3c21 | 0 | 29 | 4 | 28 | 49 | – | 90.7 | 9 | 12 | 53 | 9 | 14 | 34 | 9 | 1 | 7 | 42 | 23 | 34 | 55
O=C1NC(=O)C(c2ccccc2Cl)=C1Nc1ccccc1 [SB-376715] | 11 | 14 | 0 | 4 | 0 | 0 | 3 | 8 | 1 | 7 | 3 | 1 | 0 | 0 | 24 | 0 | 0 | 0 | 11 | 15
O=C1NC(=O)C(c2ccccc2)=C1Nc1ccc(Cl)c(C(=O)O)c1 [SB-390532] | 0 | 0 | 0 | 7 | 0 | 0 | 0 | 11 | 15 | 0 | 0 | 0 | 0 | 0 | 0 | 25 | 0 | 8 | 29 | 11
COc1ccc(C2=C(Nc3cccc(Cl)c3)C(=O)NC2=O)cc1 [SB-326892] | 2 | 0 | 2 | 0 | 0 | 9 | 0 | 0 | 0 | 0 | 1 | 21 | 100 | 14 | 0 | 100 | 21 | 0 | 0 | 0
O=C1NC(=O)C(c2ccc(Cl)cc2)=C1Nc1cccc(O)c1 [SB-333613] | 3 | 12 | 0 | 5 | 29 | 0 | 10 | 0 | 11 | 0 | 13 | 4 | 24 | 39 | 18 | 57 | 20 | 39 | 20 | 49
CSc1ccc(NC2=C(c3cccc(Cl)c3)C(=O)NC2=O)cc1 [SB-341528] | 2 | 0 | 3 | 13 | 2 | 1 | 4 | 0 | 0 | 8 | 0 | 0 | 13 | 0 | 0 | 0 | 0 | 6 | 4 | 3
O=C1NC(=O)C(c2ccc(Cl)cc2)=C1Nc1cccc(C(=O)O)c1 [SB-360737] | 0 | 8 | 0 | 0 | 6 | 0 | 0 | 13 | 0 | 0 | 0 | 9 | 0 | 5 | 0 | 0 | 2 | 14 | 0 | 0
CS(=O)(=O)c1ccccc1-c1nc(-c2ccc(F)cc2)c(-c2ccncc2)[nH]1 [SB-213663] | 31 | 9 | 0 | 0 | 11 | 5 | 0 | 2 | 0 | 0 | 0 | 0 | 0 | 0 | 0 | 0 | 28 | 7 | 58 | 0
Cc1cc(C)cc(Oc2nccc(-c3c(-c4ccc(F)cc4)ncn3C3CCNCC3)n2)c1.O=C(O)C(F)(F)F.O=C(O)C(F)(F)F.O=C(O)C(F)(F)F [SB-284851] | 0 | 0 | 0 | 0 | 0 | 0 | 14 | 0 | 0 | 0 | 15 | 0 | 0 | 0 | 0 | 0 | 0 | 0 | 17 | 90.6
